Each structure is given as a SMILES string. “And” between values parts separate entries of the source, which are not always exact repeats. Equal entries are not always repeated. Hit rate of the full screen: of about 16,000 compounds, about 40 (0.2%) were called active. Not shown: some 1% with an inconclusive outcome. Calls follow the shape of the dose curve; as a rule, active = well fitted activation curve with a large enough effect; inconclusive = small, poorly fitted or top-dose-only effect, or another doubt; inactive = no such curve, though single readings can be large or run the other way. The list shows a part of the results.
% is scaled to controls: 0 for no effect and ±100 for the full control effect.

UniProt Q8WZA2, sequence (Q8WZA2 whole entry, looked up): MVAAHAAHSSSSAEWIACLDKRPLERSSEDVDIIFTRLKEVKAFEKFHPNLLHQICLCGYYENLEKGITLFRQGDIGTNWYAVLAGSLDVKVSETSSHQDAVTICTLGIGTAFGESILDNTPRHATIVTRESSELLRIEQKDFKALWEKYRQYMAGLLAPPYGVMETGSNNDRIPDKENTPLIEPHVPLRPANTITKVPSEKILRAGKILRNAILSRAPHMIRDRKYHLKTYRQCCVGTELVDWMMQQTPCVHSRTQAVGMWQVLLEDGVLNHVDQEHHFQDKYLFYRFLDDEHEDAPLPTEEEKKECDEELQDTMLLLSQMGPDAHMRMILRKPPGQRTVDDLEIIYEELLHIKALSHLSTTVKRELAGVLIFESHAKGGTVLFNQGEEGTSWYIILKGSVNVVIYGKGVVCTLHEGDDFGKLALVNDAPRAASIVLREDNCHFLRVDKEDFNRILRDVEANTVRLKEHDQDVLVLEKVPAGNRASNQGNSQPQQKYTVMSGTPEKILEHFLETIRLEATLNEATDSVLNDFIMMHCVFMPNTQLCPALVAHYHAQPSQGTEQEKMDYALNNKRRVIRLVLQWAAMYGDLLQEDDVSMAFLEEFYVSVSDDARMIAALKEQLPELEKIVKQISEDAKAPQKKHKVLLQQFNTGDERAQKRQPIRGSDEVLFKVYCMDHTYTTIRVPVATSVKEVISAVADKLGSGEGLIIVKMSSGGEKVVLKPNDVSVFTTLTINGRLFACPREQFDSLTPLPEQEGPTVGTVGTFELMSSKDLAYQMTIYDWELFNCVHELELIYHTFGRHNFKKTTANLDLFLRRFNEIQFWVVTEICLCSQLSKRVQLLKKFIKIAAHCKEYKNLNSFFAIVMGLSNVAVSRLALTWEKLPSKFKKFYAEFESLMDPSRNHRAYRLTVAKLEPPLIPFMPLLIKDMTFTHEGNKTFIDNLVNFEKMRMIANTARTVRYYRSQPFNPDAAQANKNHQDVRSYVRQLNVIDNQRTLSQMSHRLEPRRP

The target of the test is Rap guanine nucleotide exchange factor 4 (Homo sapiens) (UniProt Q8WZA2). Nature of the test: Validation qHTS for agonist of cAMP-regulated guanine nucleotide exchange factor 4 (EPAC2).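 Also: exchange makes BODIPY-GDP fluorescence drop when released from Rap1B; series mostly up to about 150 µM.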 The conditions noted are these: EPAC2 Rap1B BODIPY-GDP exchange, fluorescence; activation: active compounds read high. In a few lines:
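Signal normalized against 6.5 mM cAMP as agonist control. Mix of EPAC2 (100 nM), RAP1B-BODIPY-GDP (250 nM) and GDP (50 uM) was read kinetically at 480/540 nm, every 5 min over 30 min, after 5 min room-temperature incubation with compound.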
A general note: In qHTS, concentration-response curves come from the screen itself.
Regarding `CCC1CN(CCNC(=O)c2ccsc2)Cc2cc(OC)ccc2O1` (stereo not drawn), the activation was inactive: -0.471%. The result for `CC(=O)Oc1ccc2c(c1)CCC1C2CC[C@]2(C)C(=O)CCC12` (stereo partly drawn) reads inactive: -15.9%. The value for `Nc1nc2n[nH]nc2c(=O)[nH]1` was inactive: -12.7%. With `O=c1c(-c2cccc(F)c2)nc2cncnc2n1Cc1ccccc1Cl`, the activation is inactive: -3.88%.

In the case of `COc1ccc(CNc2nc(-c3ccoc3)nc3ccccc23)c(OC)c1`, the activation is inactive: -8.02%.

With `Cc1ncc2c(c1CNS(=O)(=O)N(C)C)CCN(C(=O)/C=C/c1ccccc1)C2`, the activation is inactive: -10.5%. `CS(=O)(=O)Nc1cccc(-c2ccc3ncnc(NCc4cccs4)c3c2)c1`: the activation was inactive: -10.9%. The result for `COc1ccc2c(c1)[C@@]1(C)CCC[C@](C)(CO)C1CC2` (stereo partly drawn) reads inactive: -3.66%; that for `Cc1nc2cnc(N3CCNCC3)nc2n(-c2ccccc2)c1=O`, inactive: -2.15%.

`O=P(O)(O)OC[C@H](O)CO`: the activation is inactive: -1.41%. The result for `CN(C)c1nc(N(C)C)nc(N(C)C)n1` reads inactive: -3.41% and inactive: 3.56% and inactive: 1.66%. The result for `COc1ccccc1-c1cncnc1NCc1cccs1` reads inactive: -4.28%. The result for `CC(C)[C@H](O)CC[C@@H](C)C1CC[C@H]2C3CC=C4C[C@@H](O)CC[C@]4(C)C3CC[C@]12C` (stereo partly drawn) reads inactive: 6.71% and inactive: 2.83%; that for `Cc1ccc(O)cc1`, inactive: -8.71% and inactive: -8.05% and inactive: -0.405%.

As to `Cc1ccc(-c2ccnc(-n3ncc(C(=O)N(C)CC4CCCN(C)C4)c3C)n2)o1` (stereo not drawn), the activation is inactive: -14%. With `c1cnc2[nH]ccc2c1`, the activation was inactive: -27.2%. In the case of `CC(C)(C)CC(C)(C)c1ccc(OCCO)cc1`, the activation is inactive: -32%. The value for `CC(=O)OCC(=O)[C@@]1(O)CCC2C3CCC4=CC(=O)CC[C@]4(C)C3C(=O)C[C@]21C` (stereo partly drawn) was inactive: 6.23%. The result for `CCC1(C2CCN(C(=O)c3ccc(C)c(C)c3)CC2)NC(=O)N(CCc2scnc2C)C1=O` (stereo not drawn) reads inactive: -15.6%; that for `COc1ccc2ccccc2c1CN1CCC2(CCC(CNC(=O)c3ccccc3)O2)CC1` (stereo not drawn), inactive: -13.6%; that for `COc1cccc(CN2CCCC(c3nc(-c4ccncc4)ncc3-c3ccccc3)C2)c1O` (stereo not drawn), inactive: -18.3%.

`O=S1(=O)CCOC[C@H](CC2CCCCC2)N1Cc1ccccc1`: the activation is inactive: -19.2%. For `NC(=O)C(c1ccccc1)(c1ccccc1)[C@@H]1CCN(CCc2ccc3c(c2)CCO3)C1`, the activation is inactive: -10.7%. In the case of `Cc1ccc2nc(SCC(=O)N3CCOc4ccc(CN5C[C@@H](C)O[C@@H](C)C5)cc4C3)[nH]c2c1`, the activation was inactive: -32.5%. Take `NC1(C(=O)O)C[C@H](C(=O)O)[C@H](C(=O)O)C1` (stereo partly drawn): the activation was inactive: -14.2% and inactive: -5.59% and inactive: -21.8%. The result for `Clc1ccc(/C=C/c2ccc3ccccc3n2)cc1Cl` reads inactive: -23%; that for `CCCNCC(O)COc1ccccc1C(=O)CCc1ccccc1` (stereo not drawn), inactive: -4.83% [middle of 4 runs]. On to `CCNC(=O)c1sc2ncnc(NCCCN3CCOCC3)c2c1C`, for which the activation is inactive: -3.8%. The result for `Cc1cc(C(=O)NCc2nc(-c3ccccc3NC(=O)C3CCCO3)oc2C)nc(C)n1` (stereo not drawn) reads inactive: -11.1%; that for `O=C(O)[C@@H](O)[C@H](O)[C@H](O)[C@@H](O)C(=O)O` (tested in a mixture with another compound), inactive: 6.14%. Take `COc1cc([C@@H]2c3cc4c(cc3[C@@H](O[C@@H]3O[C@@H]5CO[C@@H](C)O[C@H]5[C@H](O)[C@H]3O)[C@H]3COC(=O)[C@H]23)OCO4)cc(OC)c1O`: the activation was inactive: 12.4%. The value for `COc1ccc2[nH]c(CCc3nc4c(OC)c(OC)ccc4[nH]3)nc2c1OC` was inactive: -12.9%; that for `COc1ncc2nc(-c3ccc(F)cc3)c(=O)n(Cc3cccs3)c2n1` was inactive: -6.06%; that for `N#Cc1ccc(CN2CC3(CCN(C(=O)c4ccncc4)CC3)C2)cc1` was inactive: 4.23%. The result for `O=C([C@@H]1CC=C[C@@H]2CCN(C3CC3)C(=O)[C@@H]21)N1CCN(c2ccccc2)CC1` reads inactive: -5.35%; that for `C[C@@H]1[C@H](c2ccccc2)OCCS(=O)(=O)N1Cc1cccc(Cl)c1`, inactive: -19.8%; that for `O=C(Nc1ccccc1)Nc1ccccc1`, inactive: -4.47%. The value for `O=C(Nc1ccccc1)N1CC[C@@]2(CCCN(C(=O)c3csnn3)C2)C1` was inactive: -17.9%; that for `Cc1cnc(SCC2CCCO2)nc1C1CCCN(C(=O)C2=NNC(=O)CC2)C1` (stereo not drawn) was inactive: -5.49%.

On to `O=C(Nc1cccc2c(=O)cc(-c3nn[nH]n3)oc12)c1ccc(OCCCCc2ccccc2)cc1`, for which the activation is inactive: -22.5%. For `CSc1ncccc1C(=O)NCC1Cc2cc(-c3cnccn3)ccc2O1` (stereo not drawn), the activation is inactive: 2.41%. The result for `COc1cc(/C=C(\C#N)C(=O)Nc2nnc(C(F)(F)F)s2)ccc1OCc1ccc(C(F)(F)F)cc1C(F)(F)F` reads inactive: -81.4%; that for `COc1ccccc1OCC(O)CN1CCN(CC(=O)Nc2c(C)cccc2C)CC1` (stereo not drawn), inactive: -16.1% and inactive: -22.2%; that for `O=C(c1cc(C(F)(F)F)cc(C(F)(F)F)c1)N1CCC[C@@]2(CCN(Cc3nccs3)C2)C1`, inactive: -39.8%. The value for `O=[N+]([O-])c1cccc2cn[nH]c12` was inactive: -25.1% and inactive: -8% and inactive: -27.3%.

With `CCNc1ncc2nc(-c3cc(F)cc(F)c3)c(=O)n(CCc3ccccc3)c2n1`, the activation was inactive: 9.1%.

With `CCCCC/C=C\C/C=C\CCCCCCCC(=O)NC(C)c1ccccc1` (stereo not drawn), the activation was inactive: 10.3%. Take `COc1ccc(CN2CCC(=O)N([C@H](CO)c3ccccc3)CC2)cc1`: the activation was inactive: -5.16%.

`COc1ccccc1CNc1cc(-c2cccnc2)ncn1`: the activation was inactive: -4.02%. `Cc1nc(C)n(CC(=O)N2CCOc3ccc(CN4CCN(C)C[C@@H]4c4ccccc4)cc3C2)n1`: the activation is inactive: -9.99%. The value for `C=CCN([C@@H](CC(C)C)C(=O)OC)S(=O)(=O)N(CC=C)[C@@H](CC(C)C)C(=O)OC` was inactive: -31.6%; that for `FC(F)(F)c1ccccc1-c1nc(N2CCNCC2)c2ccccc2n1` was inactive: -18.1%; that for `N=C(N)c1ccc2cc(OC(=O)c3ccc(N=C(N)N)cc3)ccc2c1` was inactive: -28.6% and inactive: 5.76%. Consider `O=C(O)CC/C=C\CC[C@H]1[C@@H](N2CCCCC2)[C@@H](O)C[C@@H]1OCc1ccc(-c2ccccc2)cc1`, for which the activation was inactive: -12.5%.

`CCCC(NC(C)C(=O)N1C(C(=O)O)CC2CCCCC21)C(=O)OCC` (stereo not drawn): the activation is inactive: -23.3%.

Regarding `Cc1cccc(CNc2ccnc(-c3cccc(C#N)c3)n2)c1`, the activation is inactive: -1.68%. The value for `O=C(NCc1cccnc1)c1cnn(-c2ncc3c(n2)-c2ccccc2CCC3)c1C1CC1` was inactive: -3.25%.

Regarding `COc1cc(=O)n2c(c1C(=O)N(C)Cc1nonc1C)CCN(Cc1cc(C)c(C)cc1C)CC2`, the activation was inactive: -20.9%. The result for `COc1ccc(C(OCCN2CCC[C@@H](C(=O)O)C2)(c2ccc(OC)cc2)c2ccc(OC)cc2)cc1` reads inactive: -3.87%. The result for `CCNc1ncc2nc(-c3cn(C)c4ccccc34)c(=O)n(-c3ccc(OC)cc3)c2n1` reads inactive: -20.7%; that for `COCC(=O)Nc1cc(C(=O)N2CCCCC2c2nccn2C)cc2nc(-c3ccccc3)n(C)c12` (stereo not drawn), inactive: -2.65%. The result for `N#Cc1cccc(NC(=O)N2CC[C@@]3(CCCN(S(=O)(=O)c4ccccc4)C3)C2)c1` reads inactive: -12.6%; that for `CN1CCN(c2ncnc3ccc(-c4ccccc4Cl)cc23)CC1`, inactive: -28.5%.

For the molecule `Clc1ccccc1-c1nc(NCc2cccnc2)c2ccccc2n1`, the activation was inactive: -16.8%. As for `COc1ccccc1CN1CC[C@@]2(CCCN(C(C)=O)C2)C1`, the activation is inactive: -22.1%. On to `COc1ccccc1CN1CC2(CCN(S(C)(=O)=O)CC2)C1`, for which the activation is inactive: -0.942%. The result for `CS(=O)(=O)CCCCN=C=S` reads inactive: -7.4%. The result for `COCc1c(C(=O)N2CCC(N3CCCCC3)CC2)cnn1-c1ncc(C)c(-c2cccs2)n1` reads inactive: -9.94%; that for `CCCCc1nc(Cl)c(CO)n1Cc1ccc(-c2ccccc2-c2nn[nH]n2)cc1`, inactive: -13%; that for `c1nc(N2CCNCC2)c2cc(-c3ccc4c(c3)OCO4)ccc2n1`, inactive: 1.73%. `CCCCCC[C@@H](O)C/C=C\CCCCCCCC(=O)O`: the activation was inactive: -17.5% and inactive: -26.2% and inactive: -12.3%. Consider `CC1=CCC2CC1C2(C)C` (stereo not drawn), for which the activation was inactive: -11.5%. The result for `CNCC(O)c1ccc(OC(=O)C(C)(C)C)c(OC(=O)C(C)(C)C)c1` (stereo not drawn) reads inactive: -13.1%. As to `CN1C(=O)N(C)C2=NNC=NC2(O)C1=O` (stereo not drawn), the activation is inactive: 7.86%. The result for `COC(=O)C1CCN(Cc2ccc3c(c2)CN(C(=O)c2ncc(C)[nH]2)CCO3)CC1` reads inactive: -13.6%.

For the molecule `CN(C)c1ccc(C(=C2C=CC(=[N+](C)C)C=C2)c2c(O)c(S(=O)(=O)[O-])cc3cc(S(=O)(=O)O)ccc23)cc1`, the activation was inactive: -17%. The value for `CN(C)Cc1ccccc1-c1cncnc1Nc1ccccc1` was inactive: -10.2%. Consider `CCN(CC)CCc1nc(-c2ccccc2)no1`, for which the activation was inactive: 6%. The value for `CCCCC(CC)COC(=O)/C=C/c1ccc(OC)cc1` (stereo not drawn) was inactive: -2.21%. For `c1cncc(-c2nc(-n3ccnc3)c3ccccc3n2)c1`, the activation is inactive: -12.2%. The value for `Cc1ccc2ncc(C)c(C)c2c1` was inactive: -22.7%; that for `CCC(/C=C/C(C)C1CCC2C3CC=C4CC(O)CC[C@@]4(C)C3CC[C@@]12C)C(C)C` (stereo partly drawn) was inactive: -30.7%. Regarding `O=C(NCC1Cc2cccc(-c3cccnc3)c2O1)c1ccc2cc[nH]c2c1` (stereo not drawn), the activation is inactive: 7.6%.
